In all, about 81,000 sequences were measured (“one-hybrid fitness for binding NBS DNA”: median about -0.1, highest 2% from about 0.36 on). The list shows a part of the results.
B1: Caulobacter ParB omega fusion; a variant is named by its letters at X, in order, B8GW30 (parent)
chain: MESVVVGEPGMSEGRRGLGRGLSALLGEVDAAPAQAPGEQLGGSREAPIEILQRNPDQPRRTFREEDLEDLSNSIREKGVLQPILVRPSPDTAGEYQIVAGERAWRAAQRAGLKTVPIMVRELDDLAVLEIGIIENVQRADLNVLEEALSYKVLMEKFERTQENIAQTIGKSXSHVANXMRLLXLPDEVQSYLVSGELTAXHARAIAAAADPVALAKQIIEGGLSVRETEALARKAPNLSAGKSKGGRPPRVKDTDTQALESDLSSVLGLDVSIDHRGSTGTLTITYATLEQLDDLCNRLTRGI

Variants of: B1
Experiment: one-hybrid fitness for binding NBS DNA (the Noc-binding site; scaled: cognate 1, non-cognate 0); higher = stronger binding
Settings: with NBS DNA site
In short: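 On M9-minus-histidine containing 0.1 mM IPTG and 5 mM 3-AT, E. coli USO cells with a HIS3 reporter, site 19 bp from the promoter, grew 48 hours at 37°C to select Caulobacter ParB libraries randomised at four specificity codons. Plasmids from before and after were Illumina-sequenced, with three replicate libraries pooled and variants under 10 reads left out. Fitness is the log change in variant-to-wild-type read ratio, rescaled against cognate and non-cognate.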

one-hybrid fitness for binding NBS DNA, 0.382:
RSKC

one-hybrid fitness for binding NBS DNA, 0.471:
RAGR

one-hybrid fitness for binding NBS DNA, 0.522:
RFKR

one-hybrid fitness for binding NBS DNA, 0.436:
KRWS

one-hybrid fitness for binding NBS DNA, 0.301:
QTTY

one-hybrid fitness for binding NBS DNA, 0.209:
KKGT

one-hybrid fitness for binding NBS DNA, ≤ 0.2:
VLNE
HYAD
LLQI
HSRW
QNIG
HHLF
ARYW
NFHD
RSLD
GLRL
DILQ
KYAY
WENF
ALFI
RYAN
LMAS
CQAR
KRDN
HQTR
FAAY
VDVL
WATQ
HFWF
GINT
DVTN
YRNV
NTES
QVWI
IREL
TMYR
SIFG
FANR
CSSA
PVQA
KRDD
HTTV
TAQK
SNGW
CADS
YMPK
VDCR
PHCS
WNNK
CVFK
NCRL
DQTK
VPWT
KDES
IPRN
SWPN
PTYR
CAAK
KSVR
TLVS
LNRW
MVTA
GQTY
NCNN
HEIT
LMLG
ATIK
HQNC
QIHK
RTEP
GKCC
MTAP
HNRF
ITTG
PLFS
RLIF
DTTW
LECG
FQAY
NNSY
ALDC
CLHE
VAPN
YKDG

Source: a collection of fitness landscapes (doi:10.1016/j.celrep.2020.107928)
